Reference: the supplement of paper PMC11741623
The other results are listed elsewhere or left out. Interaction screen of human proteins with wild-type SARS-CoV-2 proteins by split-DHFR complementation in yeast, 1 µg/mL methotrexate. Value = fitness of the pair (three or more lineages) minus that of the viral protein without a human partner, on a scale set by negative (0) and fused positive (1) controls, mean of up to three cultures; higher = more likely to interact. Active = false discovery rate below 0.05 (one-sided t-test) in at least one culture. Nearly all pairs are not hits, and differences among them are mostly noise (correlation between cultures about 0.3); most hits were seen in one culture only. Human sequences are the Swiss-Prot entries looked up by gene name; the clone may be another isoform. NSP2 values were corrected by the authors for a growth advantage. Listed are human proteins with a hit and a random twelfth of the others.

B1: C12orf36, Q495D7 (protein)
chain: MERFLNSKARRLGSCSHPAFYLLCVPDEDTSCSTIYLPLKRRADPDQLFSDLLGGTQRLWSNRFGNEESFPGRVRALVDTFCWIARAPPLGNPLRLEERIAWRIQRLKSGQTALIEKKKQKIEEDVRHQCQQTTCDRC
B2: FAM81B, Q96LP2 (protein)
chain: MQLQFLGTLASSEKRKKSQRLFFKNIKSTKNKAGKASIMSSDTNVNKSASPTATAEEQPVEPDGPLPGSDNNQEKKVRLSPAKMSTKNSTDLVEYVDKSHAFLPIIPNTQRGQLEDRLNNQARTIAFLLEQAFRIKEDISACLQGTHGFRKEESLARKLLESHIQTITSIVKKLSQNIEILEDQIRARDQAATGTNFAVHEINIKHLQGVGDLRGRVARCDSSIVKLSGDIHLFRQEHRQIEKAIQEFVPALETLSKNLDMKVMQLLGKIETASSEQTSNLKMVQGDYRHEMNLLEFKFHSLSSNLYEEVENNKKWTENQFLKYRKDHLGHINECLKVLQEKLEKSENKMEEKLLQLSSKVENFINTQKQETQLSKVKHMENKLSKKMEQMEKQIWGELETMQNEYQSGFKSIHDSLSSLQQIQKTKMDLEKYKVQKDLKKLQRKIVELQEV
B3: LRAT, O95237 (protein)
chain: MKNPMLEVVSLLLEKLLLISNFTLFSSGAAGEDKGRNSFYETSSFHRGDVLEVPRTHLTHYGIYLGDNRVAHMMPDILLALTDDMGRTQKVVSNKRLILGVIVKVASIRVDTVEDFAYGANILVNHLDESLQKKALLNEEVARRAEKLLGFTPYSLLWNNCEHFVTYCRYGTPISPQSDKFCETVKIIIRDQRSVLASAVLGLASIVCTGLVSYTTLPAIFIPFFLWMAG
B4: TAF13, Q15543 (protein)
chain: MADEEEDPTFEEENEEIGGGAEGGQGKRKRLFSKELRCMMYGFGDDQNPYTESVDILEDLVIEFITEMTHKAMSIGRQGRVQVEDIVFLIRKDPRKFARVKDLLTMNEELKRARKAFDEANYGS
B5: LYPD3, O95274 (protein)
chain: MDPARKAGAQAMIWTAGWLLLLLLRGGAQALECYSCVQKADDGCSPNKMKTVKCAPGVDVCTEAVGAVETIHGQFSLAVRGCGSGLPGKNDRGLDLHGLLAFIQLQQCAQDRCNAKLNLTSRALDPAGNESAYPPNGVECYSCVGLSREACQGTSPPVVSCYNASDHVYKGCFDGNVTLTAANVTVSLPVRGCVQDEFCTRDGVTGPGFTLSGSCCQGSRCNSDLRNKTYFSPRIPPLVRLPPPEPTTVASTTSVTTSTSAPVRPTSTTKPMPAPTSQTPRQGVEHEASRDEEPRLTGGAAGHQDRSNSGQYPAKGGPQQPHNKGCVAPTAGLAALLLAVAAGVLL
B6: MYOZ2, Q9NPC6 (protein)
chain: MLSHNTMMKQRKQQATAIMKEVHGNDVDGMDLGKKVSIPRDIMLEELSHLSNRGARLFKMRQRRSDKYTFENFQYQSRAQINHSIAMQNGKVDGSNLEGGSQQAPLTPPNTPDPRSPPNPDNIAPGYSGPLKEIPPEKFNTTAVPKYYQSPWEQAISNDPELLEALYPKLFKPEGKAELPDYRSFNRVATPFGGFEKASRMVKFKVPDFELLLLTDPRFMSFVNPLSGRRSFNRTPKGWISENIPIVITTEPTDDTTVPESEDL
B7: SPRTN, Q9H040 (protein)
chain: MDDDLMLALRLQEEWNLQEAERDHAQESLSLVDASWELVDPTPDLQALFVQFNDQFFWGQLEAVEVKWSVRMTLCAGICSYEGKGGMCSIRLSEPLLKLRPRKDLVETLLHEMIHAYLFVTNNDKDREGHGPEFCKHMHRINSLTGANITVYHTFHDEVDEYRRHWWRCNGPCQHRPPYYGYVKRATNREPSAHDYWWAEHQKTCGGTYIKIKEPENYSKKGKGKAKLGKEPVLAAENKDKPNRGEAQLVIPFSGKGYVLGETSNLPSPGKLITSHAINKTQDLLNQNHSANAVRPNSKIKVKFEQNGSSKNSHLVSPAVSNSHQNVLSNYFPRVSFANQKAFRGVNGSPRISVTVGNIPKNSVSSSSQRRVSSSKISLRNSSKVTESASVMPSQDVSGSEDTFPNKRPRLEDKTVFDNFFIKKEQIKSSGNDPKYSTTTAQNSSSSSSQSKMVNCPVCQNEVLESQINEHLDWCLEGDSIKVKSEESL

Target: SARS-CoV-2 NSP12
Test: yeast fitness gain over the viral ORF with no human partner (scaled fitness); higher = more likely to interact
Method: (§1)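 Split mouse DHFR complementation in pooled diploid yeast: human ORFeome clones carry one fragment and viral ORFs the other; barcoded lineages compete in 1 µg/mL methotrexate and fitness is read by barcode sequencing in up to three cultures.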

Binder | yeast fitness gain
B1 | inactive: 0.0718
B2 | inactive: -0.248
B3 | inactive: -0.0574
B4 | inactive: -0.0366
B5 | inactive: 0.0142
B7 | inactive: 0.0956

Target: SARS-CoV-2 NSP13
Test: as above
Method: as §1

Binder | yeast fitness gain
B1 | inactive: -0.124
B2 | inactive: -0.0427
B3 | inactive: -0.104
B4 | inactive: -0.197
B5 | inactive: 0.000665
B6 | inactive: -0.0848
B7 | inactive: -0.173

Target: SARS-CoV-2 NSP2
Test: as above
Method: as §1

Binder | yeast fitness gain
B1 | inactive: -0.295
B2 | inactive: -0.279
B4 | inactive: -0.21
B5 | inactive: -0.288
B7 | inactive: -0.0463

Target: SARS-CoV-2 ORF9Bwu (the 73-codon ORF)
Test: as above
Method: as §1

Binder | yeast fitness gain
B1 | inactive: -0.0218
B5 | inactive: -0.174

Target: SARS-CoV-2 NSP10
Test: as above
Method: as §1

Binder | yeast fitness gain
B2 | inactive: 0.019
B3 | inactive: 0.0952
B5 | inactive: 0.00161
B6 | inactive: 0.056

Target: SARS-CoV-2 NSP5
Test: as above
Method: as §1

Binder | yeast fitness gain
B2 | inactive: 0.0459
B3 | inactive: 0.0124
B5 | inactive: 0.00869

Target: SARS-CoV-2 NSP6
Test: as above
Method: as §1

Binder | yeast fitness gain
B2 | inactive: -0.104
B5 | inactive: 0.0527

Target: SARS-CoV-2 ORF10
Test: as above
Method: as §1

Binder | yeast fitness gain
B2 | inactive: -0.114
B3 | inactive: -0.106
B4 | inactive: -0.0323
B5 | inactive: 0.0157
B6 | inactive: 0.0983

Target: SARS-CoV-2 ORF3B
Test: as above
Method: as §1

Binder | yeast fitness gain
B2 | inactive: 0.0245
B4 | inactive: -0.0409
B5 | inactive: 0.0397
B7 | inactive: 0.181

Target: SARS-CoV-2 ORF6
Test: as above
Method: as §1

Binder | yeast fitness gain
B2 | inactive: -0.0754
B3 | inactive: 0.0312
B4 | inactive: 0.0189
B5 | inactive: -0.0125
B7 | inactive: 0.033

Target: SARS-CoV-2 ORF7A
Test: as above
Method: as §1

Binder | yeast fitness gain
B2 | inactive: -0.0832
B4 | inactive: -0.142

Target: SARS-CoV-2 ORF7B
Test: as above
Method: as §1

Binder | yeast fitness gain
B2 | inactive: 0.105
B3 | inactive: 0.105
B4 | inactive: 0.108
B5 | inactive: 0.0384
B7 | inactive: 0.0268

Target: SARS-CoV-2 ORF8
Test: as above
Method: as §1

Binder | yeast fitness gain
B2 | inactive: -5.7e-06
B3 | inactive: -0.142
B4 | inactive: -0.0363
B5 | inactive: 0.0149
B6 | inactive: -0.0201

Target: SARS-CoV-2 ORF9B
Test: as above
Method: as §1

Binder | yeast fitness gain
B2 | inactive: -0.0187
B3 | inactive: 0.0853
B4 | inactive: 0.0838
B5 | inactive: 0.0583
B7 | inactive: 0.0919

Target: SARS-CoV-2 NSP8
Test: as above
Method: as §1

Binder | yeast fitness gain
B3 | inactive: -0.119
B5 | inactive: 0.00381

Target: SARS-CoV-2 S
Test: as above
Method: as §1

Binder | yeast fitness gain
B3 | inactive: 0.0711
B5 | inactive: 0.0369

Target: SARS-CoV-2 NSP15
Test: as above
Method: as §1

Binder | yeast fitness gain
B5 | inactive: 0.0418
B6 | inactive: 0.0494

Target: SARS-CoV-2 NSP16
Test: as above
Method: as §1

Binder | yeast fitness gain
B5 | inactive: 0.0246

Target: SARS-CoV-2 NSP7
Test: as above
Method: as §1

Binder | yeast fitness gain
B5 | inactive: -0.0136

Target: SARS-CoV-2 ORF3A
Test: as above
Method: as §1

Binder | yeast fitness gain
B5 | inactive: -0.0201
